# The other results are listed elsewhere or left out. At the low end of the ranking, values are background and their order means little.
# Target: SIX1-Q177R homeodomain (UniProt Q15475)
# Test: universal protein binding microarray
# Details: Universal all-10-mer PBM (8x60K, AMADID 030236), 300 nM GST-tagged protein, Alexa Fluor 488 anti-GST; buffer, salt, pH and temperature not stated; high values mean tight binding; most listed sequences are background and not binding sites; double strand, one strand shown
row,Sequence,binding signal [E-score]
1,AGCGAATC,-0.221
2,AGGTTCGG,-0.0213
3,ATCCCTGG,0.0686
4,TCTCTCAA,-0.0169
5,CTGCACTA,0.0446
6,CAGGCGAG,0.0213
7,ACCCTGCT,0.19
8,CCACTGTC,-0.195
9,CCAGGCTC,-0.0822
10,AGGCAAAA,-0.165
11,ACCACCAG,0.089
12,GCAAATCA,-0.152
13,ACGGCAGT,-0.0519
14,GACAAGTA,-0.0441
15,ACGGGGCG,0.118
16,ATTGTGAG,-0.129
17,GATCGGGC,0.0277
18,CAATAATG,-0.135
19,CCCTGATC,0.0981
20,CTGTGCCC,-0.0583
21,CAATTTAG,0.116
22,ATCCAATA,0.00085
23,CAGTCCCG,-0.0934
24,CGGGGAGA,0.0507

row,Sequence,binding signal [E-score]
1,AAGAATTA,-0.148
2,TAAGTGAA,-0.156
3,CCAATTTC,-0.176
4,AAAATACT,-0.0919
5,CCGGGGAA,0.18
6,TAGTGCGA,-0.187
7,ATCAGAGA,0.101
8,TCCGTCCA,-0.0497
9,CCCCAAGG,0.218
10,ACTCCGGC,0.233
11,AGCCAATA,-0.2
12,GACAGGTC,-0.188
13,CTTCTGAC,0.00458
14,TCAACACA,0.149
15,CAATTGTC,-0.0899
16,AAGCCTAG,-0.25
17,GACAGGGC,0.162
18,CGTGTCCC,0.398
19,AATCAATG,-0.212
20,CCGGTACG,-0.11
21,CGATCGCC,-0.148
22,AACACCGT,0.467
23,CTTATAAC,0.12
24,CCTCGTCA,0.073

row,Sequence,binding signal [E-score]
1,AGAAAAAG,-0.161
2,AACCTTGA,-0.0036
3,AAATAACC,-0.181
4,CCCATATA,0.0842
5,ACCTGTGC,0.0984
6,CGCTATCA,-0.0754
7,GACTCGGC,0.109
8,AGTGTTGG,0.356
9,CACGGCAC,0.141
10,ATAAGTTC,-0.198
11,ACATTGAC,-0.149
12,AGTGGCAT,-0.106
13,CCGGAAGG,-0.131
14,AAGTACTG,-0.105
15,CAGATGAC,-0.00044
16,TAGTGGCA,-0.062
17,CCAGCATC,0.0144
18,ACCCTCTA,0.136
19,ATACTCAG,0.0801
20,AAATCCAA,-0.0505
21,CCAGCCGA,-0.0228
22,CGACTAAG,-0.00719
23,GATTCCGA,0.00709
24,GTGCTAAC,0.0583

row,Sequence,binding signal [E-score]
1,GATTGGTA,-0.0717
2,CAGCTAAC,0.128
3,AATCTAAA,-0.0359
4,GAATAGGC,-0.154
5,CTCAGCCC,-0.217
6,CCGGGACG,0.0468
7,CCACTGAA,-0.127
8,AGCGGTCC,-0.0987
9,AGCGCTTC,-0.0325
10,ATAAACTG,-0.0483
11,GCAAGGTA,-0.0731
12,ACGCCATA,0.071
13,CATTATAA,-0.167
14,AACAGGAC,-0.0522
15,ATGTAAAT,0.0112
16,CGAAAGAC,-0.202
17,CCCGGTCG,0.212
18,TATAGATA,0.00683
19,CGTTTGAA,-0.204
20,CGATGAAA,-0.125
21,GCCTGAGA,-0.0776
22,CAACGAAA,-0.00838

# — paper PMC10668032
